The other results are listed elsewhere or left out.

In this assay the test system is PF3D7_0420300 AP2 domain 1 (GST-tagged). Description: gcPBM binding intensity (ln(normalized median fluorescence intensity)); higher = stronger DNA binding. Summed up: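 The binding buffer was 1× PBS containing 1% milk, 0.2 mg/ml BSA, 0.5% salmon testes DNA and 0.03% Triton X-100. In it, GST-tagged P. falciparum DNA-binding domains expressed in E. coli were applied for 1 h to an Agilent 4 × 180k array of primer-extended double-stranded 36-bp intergenic genomic probes plus negative controls. Binding intensity, read with Alexa488 anti-GST antibody and a 488 nm scan, is the highest Masliner-normalised natural-log median intensity across replicate spots of either probe orientation.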
For “TTTTTTTTTTTTTGCACACACCATATTTATAGAAAT [CACACA_site5772]”, the “gcPBM binding intensity (ln)” value was found to be 9.59.
To TAAAATTAATTTCTGTTGCACTTATTATTAATTAAC belongs 9.27; to “ATATTATACCCGTGTACACATTATAACCATATATAA [CACACA_site5933]”, 9.46.
Turning to “TATATGTATAGAAAATGTACATATAAATATATATAT [XGTACX_site3420]”, the “gcPBM binding intensity (ln)” value was found to be 9.26.
To “CATTATTTACCGCCGTGTACGTAATGAGAAATTAAA [XGTACX_site4662]” belongs 9.
To “TTATTTCAAATTAATTTACACACTTCATACTAAAAG [CACACA_site9039]” belongs 9.26; to “TAATAAAAAAAGTGCACACACATAATATTTATATAT [CACACA_site7548]”, 9.6; to “TTTATTTATTATTAAAGTACTAAATTACATTATTAT [XGTACX_site6624]”, 9.05.
Consider “TATTTAATTACATGAACACACATTAGATATTTTTAA [CACACA_site7405]”, for which the “gcPBM binding intensity (ln)” value is 9.16.
On to “TCTTGTATATACAGTAGTACTAAAAATTATTAAATA [XGTACX_site7896]”, for which the “gcPBM binding intensity (ln)” value stood at 9.
As for “ACATACAAGAATTAAACACACACAAAATATAAATTC [CACACA_site8985]”, the “gcPBM binding intensity (ln)” value is 10.1.
To “TGTTTTTTGTTCTTTACAAAAAAAAAAAAAAAAAAA [GTGCAC_negctrl_site61]” belongs 8.33; to “TTATGTTGTAAATGCACACATACAAATACAGATACA [CACACA_site4876]”, 9.5.
To “GAAAACAAATATGTAGCACACATTCACATAATATAT [CACACA_site8731]” belongs 9.48; to “ATAAATATAAAAATTTGTACATATATAGGTATAGGT [XGTACX_site1735]”, 9.57; to “ATTATAATGGTAAAGTGTACAAATTTTTATTACACC [XGTACX_site5274]”, 9.26.
As to “TATCAATATTAAAAAGTGCAAAATAAAATATAAAAT [GTGCAC_site9486]”, the “gcPBM binding intensity (ln)” value was determined as 9.58.
To “TATATTATATATTGGGGTACATATATATAAATATAA [XGTACX_site2296]” belongs 9.04; to “TAATTTCTTATGTATTGTACATATAATATATGATAT [XGTACX_site4898]”, 9.12; to “AAAATAAATAGATAAGCACACAAGCATATAGACATA [CACACA_site7958]”, 9.72.
To “AATATATTTATGCTCATGCACTTTTTTTTTTTTTTT [GTGCAC_site9654]” belongs 9.35; to “TATATTTACATTGTAACACACATGAAATATTTATAT [CACACA_site6178]”, 9.32.
To “ATGTACATTTTTTTCACACATACATTAATTTATGAG [CACACA_site5801]” belongs 9.27.
As for “TATGTTATATTATAAGGATAAATTTTGATTATATAA [TGCATGCA_negctrl_site600]”, the “gcPBM binding intensity (ln)” value turned out to be 8.83.
To “AGAATAAAAAGGAACACACACACACCCATATATATA [CACACA_site3590]” belongs 10.1; to “TAGACTAATCCCAAAAGTACAGAAAAATTATATTAT [XGTACX_site8663]”, 9.29; to “TTATTAAATTTTTTTTGTACTTATATATATATATAT [XGTACX_site2443]”, 9.25.
To “ATTATTATATAGTGTGCATGCAATATTAATAAAACC [TGCATGCA_site245]” belongs 9.67; to “TATGAATGTATATGTTGTACATATAAATATTTATAT [XGTACX_site1146]”, 9.22.
To “TAAGCTTGTAACAGTTTACACACTAATATTTATAAA [CACACA_site3907]” belongs 9.23.
For “AATAAATATATTACATATATGTGTAGTATTTTTTTA [TGCATGCA_negctrl_site268]”, the “gcPBM binding intensity (ln)” value amounted to 9.25.
To “ATAGTAAACGAAATAAAAAGATTAGCATAATATCCT [CACACA_negctrl_site1730]” belongs 9.47; to “ATTGTTTATATTGATTGTACTCATTTTTTTTTTATT [XGTACX_site1946]”, 9.85.
To “TCCTGTGATTATATAACACACATTATTGCTTATAAG [CACACA_site1518]” belongs 9.41; to “ATATATTATATATATTACAACTTAAGAATATACATA [TGCATGCA_negctrl_site371]”, 9.16; to “ATTATATATATATATACACACACACCCTAAAAATAT [CACACA_site8463]”, 9.9.
To “ATATATTGAAAAAAATGTACGTATTTTTTTATGTTA [XGTACX_site4654]” belongs 9.11.
“AATCAAAATTAATTAACACACAATTTTAATATTCTT [CACACA_site2063]”: the “gcPBM binding intensity (ln)” value is 9.31.
To “ACACATATATATTATTATTATATAATATATATATAT [CACACA_negctrl_site1545]” belongs 9.21; to “ACATGTTTTATGTGCACACAAAGTTGTTATGAGGTT [CACACA_site4031]”, 9.64.
Regarding “ATATAATATTTCATGTGGACACATTTTATGATTGTA [XGTACX_site8770]”, the “gcPBM binding intensity (ln)” value came out at 9.4.
To “TCCATGCAGAAACACACACACAAAAAAAAATTCTTT [CACACA_site4099]” belongs 9.83; to “AAAAAAATTACATATCCATTTTAACATAATAAATAG [GTGCAC_negctrl_site618]”, 9.09.
For the sequence “TTTTTGCAAAAAGAAATAATTTTATTTTAGTTCGGA [CACACA_negctrl_site1718]”, the “gcPBM binding intensity (ln)” value worked out at 8.78.
Consider “ATTCTATTCTCCTTCACACACAAAAATATTTCATCA [CACACA_site2360]”, for which the “gcPBM binding intensity (ln)” value is 9.77.
For the sequence “ATCTATGGGTAGTATACACACTGTATATTTAGGAAT [CACACA_site5569]”, the “gcPBM binding intensity (ln)” value is 9.34.
For “TTACGAATAAAACAGTGTACATTGAATTTCTATGAG [XGTACX_site4771]”, the “gcPBM binding intensity (ln)” value is 9.2.
To “TATGTACAAATATGTACACACACACCGATATATATA [CACACA_site4487]” belongs 9.96.
On to ACTAATAACAAAAGCTTGCACTTTTTTTTTCCTAAT, for which the “gcPBM binding intensity (ln)” value was determined as 9.16.
Take “TATAATTTTCTTAGTAGTACATTTTAAATCTACTAC [XGTACX_site2621]”: the “gcPBM binding intensity (ln)” value stood at 8.99.
To “TGTATCCACATATGTACACACATATATCTGTATATG [CACACA_site5668]” belongs 9.51; to “AAAAAAAAAAAAAAAAGTACAAAAATTATATTAAGA [XGTACX_site4255]”, 9.21; to “ATATAAGATTACAAAAATTATGTGTAAATATTTAAT [XGTACX_negctrl_site448]”, 9.1.
To “ACCTATATAAATTATACACACAAATATAAATATATA [CACACA_site2843]” belongs 9.66; to “AATTATATATAACGTAGTACATATTATAAACCACGT [XGTACX_site8816]”, 9.46.
As for “TATAATAATAATGATAGTACGTATGAGTTCAAGAAA [XGTACX_site4918]”, the “gcPBM binding intensity (ln)” value was found to be 9.4.
To “TGTCATAAAACCGTTTGTACATATTAATAGACACCT [XGTACX_site4520]” belongs 9.14.
For the sequence “TTGTTATTCCACCGTTGTACAGTTATATACATACAC [XGTACX_site8296]”, the “gcPBM binding intensity (ln)” value was 9.47.
In the case of “ATATTCCTTTAATATTGTACTATTTTTTTCCTTATA [XGTACX_site8659]”, the “gcPBM binding intensity (ln)” value worked out at 9.55.
With “TATATATATATATATTGTACTAAATCATTTAAATGA [XGTACX_site8016]”, the “gcPBM binding intensity (ln)” value came to 9.
To “AAAAAACAAAAACACACGCACACAAAAAAAAAAAAA [CACACA_site802]” belongs 9.82.
To “ATGAAAATATTTAAAAGTACAGAAATATAAAACCTT [XGTACX_site403]” belongs 9.5; to “CACAAATATACAAATACACACAAATATACACATATA [CACACA_site7176]”, 9.77.
To “TATAAAATATAAATAAATAAATAAATATATATATAT [TGCATGCA_negctrl_site448]” belongs 9.11.
Turning to “AAAATATTTATCATTTGTACTTAGATGTAAACTTGA [XGTACX_site1778]”, the “gcPBM binding intensity (ln)” value was 8.92.
As to “TATTTTATACACTTGCTAAAACATTAACACATATGT [CACACA_negctrl_site1818]”, the “gcPBM binding intensity (ln)” value amounted to 9.38.
Regarding “ATTATACACCCGCGCACACACAACAAAAAAAAAAAA [CACACA_site5871]”, the “gcPBM binding intensity (ln)” value was determined as 9.78.
To “ATGCAATTATATAGTAGTACAAATTTATAAATATAC [XGTACX_site4869]” belongs 9.39.
To “TCATATATTATATATTGTACAAAATAATAAGTATTT [XGTACX_site3987]” belongs 8.99; to “ATAATTGTTTAAAGGTGTACAATACATATATTTTAA [XGTACX_site3648]”, 9.24; to “ATATATATATATATGGGTACGTAAAAATATAATAAA [XGTACX_site4036]”, 9.44.
Turning to “GTTGTTATATAAAATTGTACATAAAAAACAAAATAT [XGTACX_site5313]”, the “gcPBM binding intensity (ln)” value was found to be 9.26.
To “TTTTCTTTCTTTCAAACACACATTAATTTTATTCAT [CACACA_site2734]” belongs 9.33.
As for “TAAAATTATTAATGAGTGCATTATAAAATCTATATA [GTGCAC_site9493]”, the “gcPBM binding intensity (ln)” value worked out at 9.02.
As to “ATAAATGGCTATAGCATATTGTATATGTGATTATAA [CACACA_negctrl_site948]”, the “gcPBM binding intensity (ln)” value was 9.17.
To “ATTCTAAATATCAGTGCACACATTTCTACGCAAAGT [CACACA_site474]” belongs 9.36; to “ACATACATATATATACGTACATATATATTTATATAT [XGTACX_site5799]”, 9.35; to “AGCAAATACAAACACACACACACATATACATATATA [CACACA_site3497]”, 10.2.
To “TAATTACAAAAACATACACACAAAAAAAAAAAAAAA [CACACA_site3782]” belongs 9.51; to “GTTGGTAGATTTATTTGTACATATGTATCATATTAT [XGTACX_site7135]”, 9.58; to “AAAAATTTATTTTGTTTTTTAAGATTTTTTTTTTTT [CACACA_negctrl_site1210]”, 8.8.
To “ATATTAAGAATATATACACACATAAGTATTGTATAT [CACACA_site6110]” belongs 9.52; to “ATAAAATAAAATAAATGTACACGAAAAAAAATATTT [XGTACX_site3747]”, 9.64; to “TATTCGTGCAATAGTAGTACACTTATAAATTATTCT [XGTACX_site4899]”, 9.24.
Regarding “AGTGAGAAATACATAATAATACATTATGTGCATATT [XGTACX_negctrl_site247]”, the “gcPBM binding intensity (ln)” value was determined as 9.36.
To “TTACTTGTTTATTTTATTTTTTTTTTTTTTTTGTTA [TGCATGCA_negctrl_site266]” belongs 9.08; to “AAGAATATTTTTTTCTGTACATATAATTTATATACG [XGTACX_site5801]”, 9.13.
For “GTACACATATATATATATATATATATATATATATTA [CACACA_negctrl_site1580]”, the “gcPBM binding intensity (ln)” value stood at 9.14.

The record behind these values is the supplement of paper PMC11417369.
